The subject of one test is HSkMC. As to the kind of experiment: cytotoxicity call (relative viability < 0.9). As to conditions: 10 µM.
A further test relates to HepG2. Put plainly: cytotoxicity call (relative viability < 0.9). The following applies: 10 µM.
For a further test, the system named is S. aureus RN4220. Put plainly: growth inhibition call (relative growth <= 0.2). The following applies: 50 µM.

SMILES strings stand for the structures. Some of the results follow.

For `C=CC1CN2CCC1CC2C(O)c1ccnc2ccc(OC)cc12` (configuration not stated), the cytotoxicity call with HSkMC and in the test on HepG2 was “inactive” each time. The growth inhibition call in the test with S. aureus RN4220 is “inactive”.

For `C[C@@H](O)/C=C/c1cccc[n+]1C`, the cytotoxicity call in the test with HSkMC and in the test on HepG2 was “inactive” each time. Further, the growth inhibition call in the test on S. aureus RN4220 is “inactive”.

As to `C[C@H]1CN([C@@H](C)CO)C(=O)c2cccc(NC(=O)Nc3cccc4ccccc34)c2O[C@@H]1CN(C)C(=O)Nc1cccc2ccccc12`, the cytotoxicity call in the test on HSkMC and in the test with HepG2 was “inactive” each time. Moreover, in the test with S. aureus RN4220, the growth inhibition call was “inactive”.

`C[C@H](O)[C@H](O)[C@@H](O)[C@@H](O)/C=N/NC(=O)CCCCC(=O)NO`: the cytotoxicity call with HSkMC and with HepG2 was “inactive” throughout. The growth inhibition call with S. aureus RN4220 was “inactive”.

Consider `CC(C)=CCC/C(C)=C/CO`, for which the cytotoxicity call in the test on HSkMC and with HepG2 was “inactive” throughout. Moreover, the growth inhibition call in the test with S. aureus RN4220 was “inactive”.

For the compound `COc1ccc(S(=O)(=O)N2C[C@@H](O)COC[C@@H]3O[C@H](CC(=O)N[C@@H]4CCN(Cc5ccccc5)C4)CC[C@H]32)cc1`, the cytotoxicity call with HSkMC and in the test with HepG2 was “inactive” throughout. Also, the growth inhibition call in the test with S. aureus RN4220 is “inactive”.

As to `CN(C)c1ccsc1C(=O)NN`, the cytotoxicity call with HSkMC and in the test with HepG2 was “inactive” in each case. In the test on S. aureus RN4220, the growth inhibition call is “inactive”.

With `C[C@H]1CCCCO[C@@H](CN(C)Cc2ccc(C(F)(F)F)cc2)[C@@H](C)CN([C@@H](C)CO)C(=O)c2cc(NC(=O)Nc3cccc4ccccc34)ccc2O1`, the cytotoxicity call in the test on HSkMC and in the test with HepG2 was “inactive” throughout. Further, in the test on S. aureus RN4220, the growth inhibition call is “inactive”.

Take `C[C@@H]1CN([C@@H](C)CO)C(=O)c2cc(C#CC3(O)CCCC3)cnc2O[C@@H]1CN(C)C(=O)Cc1ccccc1`: the cytotoxicity call in the test on HSkMC and in the test on HepG2 was “inactive” throughout. For the same compound, the growth inhibition call in the test with S. aureus RN4220 was “inactive”.

For the compound `CO[C@H]1CN(C)C(=O)c2cc(NS(=O)(=O)CC(F)(F)F)ccc2OC[C@@H](C)N(Cc2ccccn2)C[C@H]1C`, the cytotoxicity call with HSkMC and with HepG2 was “inactive” each time. For the same compound, in the test with S. aureus RN4220, the growth inhibition call is “inactive”.

Regarding `COc1ccc(NC(=O)Nc2cccc3c2O[C@H](CN(C)C(=O)Nc2cccc4ccccc24)[C@H](C)CN([C@@H](C)CO)C3=O)cc1`, the cytotoxicity call in the test on HSkMC and in the test on HepG2 was “inactive” each time. Further, in the test on S. aureus RN4220, the growth inhibition call is “inactive”.

For the compound `C[C@H](CO)N1C[C@H](C)[C@H](CN(C)CC2CCCCC2)OCCCC[C@H](C)Oc2ccc(NC(=O)Cc3ccccc3)cc2C1=O`, the cytotoxicity call with HSkMC and with HepG2 was “inactive” in each case. The growth inhibition call in the test on S. aureus RN4220 was “inactive”.

Consider `Cc1cc(C(=O)Nc2cccc3c2O[C@H](CN(C)Cc2ccc(C(=O)O)cc2)[C@H](C)CN([C@@H](C)CO)C3=O)n(C)n1`, for which the cytotoxicity call in the test on HSkMC and with HepG2 was “inactive” throughout. Moreover, in the test on S. aureus RN4220, the growth inhibition call was “inactive”.

Regarding `OC[C@H]1O[C@@H](OCc2ccccc2)[C@H](O)[C@@H](O)[C@@H]1O`, the cytotoxicity call with HSkMC and with HepG2 was “inactive” in each case. Further, in the test with S. aureus RN4220, the growth inhibition call is “inactive”.

In the case of `CN(C)C(=O)C[C@@H]1C=C[C@@H](NC(=O)C2CCOCC2)[C@@H](CO)O1`, the cytotoxicity call with HSkMC and with HepG2 was “inactive” each time. The growth inhibition call in the test with S. aureus RN4220 is “inactive”.

As for `Cc1ccc2ccccc2n1`, the cytotoxicity call in the test with HSkMC and with HepG2 was “inactive” throughout. Besides, the growth inhibition call with S. aureus RN4220 was “inactive”.

For `OC(Cn1cncn1)(Cn1cncn1)c1ccc(F)cc1F`, the cytotoxicity call in the test on HSkMC and with HepG2 was “inactive” in each case. In addition, the growth inhibition call in the test on S. aureus RN4220 is “inactive”.

Consider `CC1(C)SC2C(NC(=O)Cc3ccccc3)C(=O)N2C1C(=O)[O-].[K+]` (configuration not stated), for which the cytotoxicity call with HSkMC and in the test on HepG2 was “inactive” throughout. For the same compound, in the test on S. aureus RN4220, the growth inhibition call is “active”.

For `CC(C)NC(=O)N(C)C[C@@H]1Oc2ccc(NC(=O)CCN3CCOCC3)cc2CC(=O)N([C@@H](C)CO)C[C@@H]1C`, the cytotoxicity call in the test with HSkMC and in the test on HepG2 was “inactive” in each case. Moreover, the growth inhibition call with S. aureus RN4220 is “inactive”.

Turning to `CS(=O)(=O)N1C[C@@H](O)COC[C@@H]2O[C@H](CC(=O)NCc3ccccc3)CC[C@H]21`, the cytotoxicity call in the test on HSkMC and with HepG2 was “inactive” throughout. Moreover, in the test with S. aureus RN4220, the growth inhibition call is “inactive”.

On to `CC(C)NC(=O)Nc1cccc2c1O[C@H](CN(C)S(=O)(=O)c1ccccc1)[C@@H](C)CN([C@H](C)CO)C2=O`, for which the cytotoxicity call with HSkMC and with HepG2 was “inactive” throughout. Further, the growth inhibition call in the test with S. aureus RN4220 was “inactive”.

For `Cc1nnsc1C(=O)NCC1(O)CCCC1`, the cytotoxicity call in the test with HSkMC and with HepG2 was “inactive” throughout. The growth inhibition call in the test on S. aureus RN4220 is “inactive”.

In the case of `C[C@H](O)C#Cc1ccc2c(c1)O[C@@H](CN(C)C(=O)CN(C)C)[C@H](C)CN([C@H](C)CO)S2(=O)=O`, the cytotoxicity call with HSkMC and with HepG2 was “inactive” in each case. The growth inhibition call with S. aureus RN4220 was “inactive”.

Take `C[C@H]1CN([C@@H](C)CO)C(=O)Cc2cc(NC(=O)CCN3CCOCC3)ccc2O[C@H]1CN(C)S(=O)(=O)c1ccccc1`: the cytotoxicity call in the test with HSkMC and in the test with HepG2 was “inactive” each time. Further, the growth inhibition call with S. aureus RN4220 was “inactive”.

Regarding `C[C@H]1CCCCO[C@@H](CN(C)Cc2ccc(C(=O)O)cc2)[C@@H](C)CN([C@@H](C)CO)C(=O)c2cc(NS(=O)(=O)c3cccs3)ccc2O1`, the cytotoxicity call in the test on HSkMC (human skeletal muscle cells) and in the test on HepG2 was “inactive” in each case. The growth inhibition call in the test on S. aureus RN4220 is “inactive”.

As for `C[C@@H]1CCCCO[C@@H](CN(C)C(=O)Nc2cccc3ccccc23)[C@H](C)CN([C@H](C)CO)C(=O)c2cc(NC(=O)Nc3ccc(C(F)(F)F)cc3)ccc2O1`, the cytotoxicity call in the test with HSkMC and in the test with HepG2 was “inactive” in each case. Also, the growth inhibition call with S. aureus RN4220 was “inactive”.

Take `Cc1ccc(S(=O)(=O)Nc2ccc3c(c2)CC(=O)N([C@H](C)CO)C[C@H](C)[C@H](CN(C)C(=O)Nc2cccc4ccccc24)O3)cc1`: the cytotoxicity call with HSkMC and in the test with HepG2 was “inactive” throughout. In addition, the growth inhibition call with S. aureus RN4220 was “inactive”.

As to `C[C@H]1CN([C@@H](C)CO)C(=O)Cc2cc(NC(=O)CCC(F)(F)F)ccc2O[C@@H]1CN(C)Cc1ccc(C(F)(F)F)cc1`, the cytotoxicity call in the test with HSkMC and in the test with HepG2 was “inactive” each time. Further, in the test with S. aureus RN4220, the growth inhibition call is “inactive”.

For the compound `O=C(Cc1ccccc1)NCCN1CCOCC1`, the cytotoxicity call with HSkMC and in the test on HepG2 was “inactive” in each case. For the same compound, the growth inhibition call with S. aureus RN4220 is “inactive”.

(Values after the antibiotic and cytotoxicity screens of Wong et al. (2023).)
